In PubChem BioAssay AID463173 (ICCB-Longwood Screening Facility, Harvard Medical School, 2010):
The campaign covered roughly 52,000 compounds. About 1,700 (3.3%) were called active. Rule as the data show it: active = survival mostly below about 52% (no sharp cut-off); inactive = mostly above about 56%. This is one part of the list.

These molecules were tested on Wild type (assay: growth inhibition of S. aureus wild type versus tarO mutant, primary screen, teichoic acid synthesis inhibitors, RN4220, OD600 (AID 463173)). Settings: S. aureus RN4220 wild type/DeltatarO growth, OD600, 18 h, stronger effect = lower value, screened at 18.75 µg/mL (by protocol).

Structure (SMILES) | survival
CCOc1ccc(CCNC(=O)CCn2c(=O)c3cccn3c3cccnc32)cc1 | inactive: 90%
Cc1ccc(Cl)cc1NC(=O)CCCN1C(=O)CCn2nc(-c3cn(C)c4ccccc34)cc21 | inactive: 120%
OC(COc1ccc2ccccc2c1)Cn1ccnc1 (centres undefined) | inactive: 113%
COc1ccc(N2CCN(C(=O)c3cc4cc5ccc(Cl)cc5nc4o3)CC2)cc1 | inactive: 87%
COc1ccc(C)cc1S(=O)(=O)NCC(c1ccc(N(C)C)cc1)N1CCc2ccccc21 (centres undefined) | inactive: 65%
CN(c1ccccc1)c1ncnc2c1cnn2C | inactive: 105%
CCC(=O)Nc1ccccc1-c1nc2ccccc2n(C(C)C(=O)Nc2ccc(OC)cc2)c1=O (centres undefined) | inactive: 82%
O=C(O)c1ccc(N2C(=O)c3[nH]nc(-c4ccccc4)c3C2c2cccc(F)c2)cc1 (centres undefined) | inactive: 71%
COc1cccc(-c2nc3c(c(C)nn3-c3ccccc3)c3cc(OC)c(OC)cc23)c1 | inactive: 82%
CCc1ccc(C2C(C(=O)Nc3ccc(Cl)cc3)=C(C)Nc3ncnn32)cc1 (centres undefined) | inactive: 59%
Cc1ccc2c(c1)C(=O)OC(C(=O)Nc1ncc(Cc3ccccc3)s1)C2 (centres undefined) | inactive: 71%
CCNc1nc(Oc2ccc(=O)n(-c3ccccc3)n2)nc(N(C)C)n1 | inactive: 74%
Cc1cc(NC(=O)N2CCC(CN3CCOCC3)CC2)ccc1Br | inactive: 117%
COc1cccc(C2C(=O)N(C3CCCCC3)CC(=O)N2Cc2ccc(Cl)cc2)c1 (centres undefined) | inactive: 83%
Cc1ccc(NC(=O)Cn2c(=O)oc3cc(S(=O)(=O)N4CCC(C)CC4)ccc32)cc1Cl | inactive: 150%
Cc1cccc(C(=O)N(Cc2ccco2)Cc2ccccc2F)c1 | inactive: 113%
CCOc1cc(C(=O)Nc2ccc(-c3nc4cc(Cl)ccc4o3)cc2)cc(OCC)c1OCC | inactive: 90%
CC(=O)c1cccc(-n2c(=O)c3c4c(sc3n(CC(=O)c3ccc(Cl)cc3)c2=O)CN(C(C)=O)CC4)c1 | inactive: 89%
CC1CCCCN1C(=O)CSc1n[nH]c(-c2ccccc2)n1 (centres undefined) | inactive: 87%
Cn1cc(C(=O)NCCc2ccc(Cl)cc2)c(=O)c2cc(S(=O)(=O)N3CCOCC3)ccc21 | inactive: 81%
COc1ccc(CNC(=O)CCCc2nnc3n(CCC(C)C)c(=O)c4sccc4n23)cc1 | inactive: 111%
O=c1[nH]c(C2CCCN(S(=O)(=O)c3ccccc3Cl)C2)nc2c1nnn2Cc1ccc(OC(F)(F)F)cc1 (centres undefined) | inactive: 65%

Structure (SMILES) | survival
CCc1nn(CCCC(=O)N2CCN(c3ccc(OC)cc3)CC2)c(=O)c2cc3occc3n12 | inactive: 105%
COc1ccc(CCNC(=O)c2ccc3c(c2)c(C)c(C)n3Cc2ccccc2)c(OC)c1OC | inactive: 68%
Cc1ccc(CCNC(=O)C2CC(=O)N(CCc3ccccc3)C2)cc1 (centres undefined) | inactive: 77%
COc1ccc(S(=O)(=O)N(CC(=O)O)c2cc(Cl)ccc2OC)cc1OC | inactive: 106%
CCOc1ccc(Nc2ncnc3c2nc2n3CCCCC2)cc1 | inactive: 131%
Cc1cccc(N2CCN(C(=O)Cn3ncc4c3-c3ccccc3OC4)CC2)c1C | inactive: 77%
COc1ccc(NC(=O)C2CCC(CNS(=O)(=O)c3ccc4c(c3)C(C)(C)C(=O)N4C)CC2)cc1 (centres undefined) | inactive: 88%
O=C(NCc1ccc2c(c1)OCO2)C1CCN(c2ccc(S(=O)(=O)N3CCCC3)cc2)CC1 | inactive: 101%
O=C(Nc1nnc(S(=O)(=O)N2CCCCCC2)s1)c1cccc(Br)c1 | inactive: 14%
Clc1cccc(N2CCN(c3c4c(nc5nncn35)CCC4)CC2)c1 | inactive: 108%
Cn1cnc(S(=O)(=O)N2CCC(C(=O)Nc3ccc(C#N)cc3)CC2)c1 | inactive: 94%
O=C(COc1ccccc1)Nc1ccc2nc(SCC(=O)N3CCc4ccccc43)sc2c1 | inactive: 89%
CCOc1ccc(C(=O)Nc2onc3c2CCCC3)cc1 | inactive: 83%
N#Cc1ccccc1Cn1c(SCC(=O)Nc2ccc(F)cc2)nc2ccccc21 | inactive: 83%
CCc1nnc(SCc2ccc(F)cc2Cl)c2cc3sc(C)cc3n12 | inactive: 96%
c1ccc(-c2cnnn2-c2ccccc2)cc1 | inactive: 100%
CC(=O)c1ccc(NC(=O)c2nc(-c3ccccc3)n(-c3ccccc3Cl)n2)cc1 | inactive: 58%
COc1ccc(CNCCCSc2nnnn2C)c(OC)c1 | inactive: 85%
CCOC(=O)c1ccccc1NC(=O)c1ccc2c(Cl)c3c(nc2c1)CCC3 | inactive: 84%
CC(C)(C)n1nnnc1C(c1cccnc1)N(Cc1ccccc1)Cc1ccco1 (centres undefined) | inactive: 106%
COc1cccc(CNC(=O)CCn2c(=O)c3cccn3c3cccnc32)c1OC | inactive: 86%
Clc1ccc(-n2ccc3ccccc32)cc1 | inactive: 104%
